# Test results taken from PubChem BioAssay AID1347417 (National Center for Advancing Translational Sciences (NCATS), 2020).
# Hit rate of the full screen: of about 120,000 compounds, about 5,300 (4.4%) were called active. This list was built around the results that the source calls inconclusive (neither active nor inactive); the mix of calls is not that of the screen. The call rests on the fitted dose curve; in most records, active means well fitted inhibition curve with a large enough effect; inconclusive means small, poorly fitted or top-dose-only effect; inactive means no such curve, though single readings can be large or run the other way. Where the call is inconclusive, the potency comes from a doubtful curve fit.
# Assay: qHTS Primary assay for Inhibitors of Plasmodium falciparum Dd2 growth in vitro; further: nearly all actives have a fitted effect of over 65% in size;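 on activity, negative = inhibition: plate controls were DMSO vehicle for no effect and reference drug for full effect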
# Conditions: P. falciparum Dd2 growth, SYBR Green, 72 h; activity, negative = inhibition: at 28.9 µM (top of the series) unless noted; series mostly up to 28.9 µM
# Outline: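 Readout: SYBR Green fluorescence, 485 nm excitation, 535 nm emission, after ~16 h lysis at 37C. Before that, Dd2-infected red cells (2.5% hematocrit) grew 72 h with compound, 29 uM top final concentration.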
# Potency means the concentration at half of the fitted maximal effect; tags describe the fitted curve by direction and shape.
Compound,Potency,"activity, negative = inhibition"
Cc1cn2nc(C(=O)N3CCC(NC(=O)c4ccc(F)c(F)c4)CC3)cc2c(=O)[nH]1,inactive,
O=c1n(-c2ccc(Cl)cc2)nc2n1CCN(Cc1ccsc1)C2,"inconclusive: 11.2 µM [inhibitor, single point]",
O=C(CCC1CCCN(Cc2cccn2-c2cccnc2)C1)Nc1ccccc1F (configuration not stated),"inconclusive: 1.58 µM [inhibitor, full curve]",
COCc1nnc(NC(=O)C2c3ccccc3C(=O)N(CC(C)C)C23CCCCC3)s1 (configuration not stated),active: 3.55 µM,
NC1CCN(C(=O)C2CCCN(c3nc(-c4ccccc4)nc4c3CCC4)C2)CC1 (configuration not stated),"inconclusive: 12.6 µM [inhibitor, single point]",
COc1ccc(-c2nc(Cn3c(SCc4ccccc4F)nc4ccncc43)c(C)o2)cc1OC,"inconclusive: 1.58 µM [inhibitor, full curve, poor fit]",
O=C(CCS(=O)(=O)c1cc(Br)cc2c1N(C(=O)C1CC1)CC2)Nc1ccc(C(F)(F)F)cc1,active: 1.12 µM,
COc1cccc(-c2ccc3c(n2)CNC(=O)CO3)c1,"inconclusive: 1 µM [inhibitor, full curve]",
COc1ccc(CNC(=O)C2CCN(C(=O)N3CC(C)Oc4ccc(C)cc43)CC2)cc1 (configuration not stated),"inconclusive: 10 µM [inhibitor, single point]",
Cc1noc(-c2cn(C3CCN(C(=O)c4ccc(C(C)(C)C)cc4)CC3)nn2)n1,"inconclusive: 10 µM [inhibitor, single point]",
O=C(O)CCn1ncc2cc(OCC3CCN(C(=O)C4CC4)CC3)ccc21,inactive,
CN(C)CCN1CC2(CCCN(C(=O)CN(C)c3ccccc3)C2)CCC1=O (configuration not stated),inactive,
Cc1cn2c(=O)c(S(=O)(=O)NCCc3ccccc3)c(C)nc2s1,"inconclusive: 10 µM [inhibitor, single point]",
CCOc1ccc(-c2nnc(SCC(=O)NCCC(C)C)nc2-c2ccc(OCC)c(OC)c2)cc1OC,"inconclusive: 12.6 µM [inhibitor, single point]",
Cc1ccc(N2C(=O)CSC23C(=O)N(CC(=O)NC2CCCCC2)c2ccccc23)cc1 (configuration not stated),"inconclusive: 15.8 µM [inhibitor, single point]",
CC(C)OCCCNC(=O)c1ccc(-n2c(-c3ccccc3)cc3c2CCCC3)cc1,"inconclusive: 17.8 µM [inhibitor, single point]",
COc1cccc(C(=O)NCC(c2ccc(N(C)C)cc2)N2CCCC2)c1OC (configuration not stated),"inconclusive: 17.8 µM [inhibitor, single point]",
CC(C)CN1CCc2nc(N3CCN(c4ncccn4)CC3)ncc2C1,"inconclusive: 10 µM [inhibitor, single point]",
N#Cc1ccc(CN2CC(Oc3ccc(F)cc3F)C2)cc1,,inconclusive: -52.5% [inhibitor] [at 44.1 µM]
CN1CCN(Cc2ccc(Nc3cnc4ccc(-n5ccnc5)nn34)cc2)CC1,"inconclusive: 7.08 µM [inhibitor, partial curve, poor fit]",
COCCN1CC(C(=O)N(C)Cc2cnn(-c3ccccc3C)c2)CCC1=O (configuration not stated),inactive,
CC(NC(=O)c1cc(Sc2ccc(F)cc2F)nc2ccccc12)c1ccccc1 (configuration not stated),"inconclusive: 17.8 µM [inhibitor, single point]",
CCOc1ccccc1C(=O)N1CCC(Cc2nc(-c3ccccc3)no2)CC1,"inconclusive: 17.8 µM [inhibitor, single point]",

Compound,Potency,"activity, negative = inhibition"
Cc1ccc(C)c(N2CCN(CCCNC(=O)Nc3cc(Cl)ccc3C)CC2)c1,"inconclusive: 5.01 µM [inhibitor, partial curve, poor fit]",
COc1ccc(NC(=O)c2cc3n(n2)CC(c2ccc(Cl)cc2)OC3)c(OC)c1 (configuration not stated),inactive,
COc1ccc(CNC(=O)Cc2csc3ccccc23)cc1OC,"inconclusive: 17.8 µM [inhibitor, single point]",
O[C@H]1CC[C@@H](Cc2cc(-c3ccccc3)on2)O[C@@H]1CNC1CCCCC1,active: 4.47 µM,
CCc1ccc(NC(=O)CSc2nc3nccnc3c(=O)n2CCc2c[nH]c3ccccc23)cc1,"inconclusive: 10 µM [inhibitor, single point]",
CCc1ccc(NC(=O)C2CCN(C(=O)N3CC(CC)Oc4ccccc43)CC2)cc1 (configuration not stated),"inconclusive: 12.6 µM [inhibitor, single point]",
O=C(c1ccc2cccc(F)c2n1)N1CCN(C(=O)C2CCCCC2)CC1,inactive,
O=C1Cc2c(-c3cccc(O)c3)n[nH]c2CN1CC1CC1,"inconclusive: 22.4 µM [inhibitor, partial curve, poor fit]",
Cc1cccc(NC(=O)N2CCc3c(sc4c3CCCC4)C2c2ccc(F)cc2)c1 (configuration not stated),"inconclusive: 14.1 µM [inhibitor, single point]",
Cc1noc(-c2ccc3c(c2)OCO3)c1C(=O)N1CCC(Cc2ccc(F)cc2)CC1,"inconclusive: 11.2 µM [inhibitor, single point]",
CS(=O)(=O)N1CC(n2cc(C(=O)NCC3CC3)nn2)C1,inactive,
CC(C)n1cnnc1-c1nn(C)c2c1CN(C(=O)c1nn(C)c3ccccc13)CC2,"inconclusive: 3.16 µM [inhibitor, partial curve]",
Cc1cnc(C(=O)N[C@@H]2CCC[C@@H]2C(=O)NC2CCCC2)cn1,inactive,
O=C1Nc2ccccc2C12CCN(Cc1cncs1)C2 (configuration not stated),,inconclusive: -47.8% [inhibitor] [at 44.1 µM]
COCCN1C(=O)c2ccccc2C(C(=O)Nc2cccc(C)n2)C12CCCC2 (configuration not stated),"inconclusive: 20 µM [inhibitor, single point]",
O=C(C1CCCC1)N1CCC(N2C(=O)C(O)C23CCCCC3)CC1 (configuration not stated),inactive,
COc1ccccc1-c1cc([C@H]2CN3CC[C@H]2C[C@@H]3COC(=O)Nc2ccc(C(C)=O)cc2)n(C)n1,"inconclusive: 11.2 µM [inhibitor, single point]",
Cc1ccc(N2CCN(C(=O)Cc3c(C(=O)O)c(C)cn3C)CC2)c(C)c1,inactive,
COCc1noc([C@@H]2CN(C(=O)Cc3ccccc3)C[C@H]2CO)n1,inactive,
COC(=O)c1ccc2nc(CO[C@H]3CN(Cc4cn(C)c5ccccc45)C[C@H]3F)[nH]c2c1,"inconclusive: 2 µM [inhibitor, partial curve]",
Oc1ccccc1CN1CCC(O)(c2csc(CN3CCN(c4ccccn4)CC3)n2)CC1,active: 7.94 µM,
Cc1ccc(NC(=O)c2cc3c(N4CCSCC4)nc(C)cn3n2)c(F)c1,"inconclusive: 3.98 µM [inhibitor, single point]",
COc1nccc(N2CCC(CC(=O)N3CCCC3)CC2)n1,inactive,

Compound,Potency,"activity, negative = inhibition"
O=C1CC(c2ccccc2C(F)(F)F)c2c(c3ccccc3[nH]c2=O)O1 (configuration not stated),inactive,
CCc1nc(-c2c3n(c(=O)n(Cc4ccccc4F)c2=O)CCCC3)no1,"inconclusive: 20 µM [inhibitor, single point]",
CCc1ccc(NC(=O)CSc2nc3n[nH]c(C)c3c(=N)n2-c2ccccc2C)cc1,"inconclusive: 2.24 µM [inhibitor, full curve, poor fit]",
Cc1cc(C)cc(N2CCN(c3cc(C4CC(O)C4)nc(C)n3)CC2=O)c1 (configuration not stated),"inconclusive: 0.316 µM [inhibitor, full curve, poor fit]",
O=C1NCCC[C@@H]1NC(=O)[C@@H]1CN(C(=O)c2cccc(F)c2)CCN1C(=O)c1cccc(F)c1,inactive,
COc1ccc(-c2nc3c(c(=O)[nH]2)CCN(C(=O)Nc2ccc(C)cc2C)C3)cc1,inactive,
COc1ccccc1CNC(=O)c1noc(-c2ccc3c(c2)OCO3)n1,inactive,
Cc1ccc(-c2nc3cc(C(C)C)ccc3o2)cc1NC(=O)c1cccs1,"inconclusive: 17.8 µM [inhibitor, single point]",
Cc1cccc(NC(=O)CSc2nc3ccc(NC(=O)c4ccco4)cc3s2)c1,"inconclusive: 11.2 µM [inhibitor, single point]",
COc1cccc(CN2CCc3c(cc(C(=O)Nc4cc(OC)cc(OC)c4)n3C)C2)c1,active: 8.91 µM,
CCCCOc1ccc(CNC(=O)C2CCN(c3nnc(-n4cccc4CNc4ccc(C)cc4)s3)CC2)cc1,"inconclusive: 5.01 µM [inhibitor, partial curve, poor fit]",
CC[C@H]1CN(S(=O)(=O)c2ccccc2)CC[C@H]1CC(=O)NCCOC,"inconclusive: 7.94 µM [inhibitor, partial curve, poor fit]",
N#Cc1ccc(C(=O)Nc2ccc3n(c2=O)C[C@H]2C[C@@H]3CN(C(=O)NC3CCCCC3)C2)cc1,inactive,
CC(C)NC(=O)N1CCC2(CC1)CN(C(=O)NC(C)C)CCO2,inactive,
O=c1c2nc(-c3ccccc3)ccc2ncn1Cc1ccccc1,"inconclusive: 35.5 µM [inhibitor, partial curve, poor fit]",
CC(C)CC(=O)Nc1ccc(C(=O)OCc2cc(=O)n3nc(C(C)C)sc3n2)cc1,"inconclusive: 3.55 µM [inhibitor, partial curve]",
COc1cccc(C(=O)Nc2cc(-c3ccccc3)no2)c1,inactive,
CC1(CCCCc2ccccc2)COc2ccc(C(=O)NCCN3CCOCC3)cc2N1 (configuration not stated),"inconclusive: 0.447 µM [inhibitor, partial curve, poor fit]",
COc1ccccc1-c1cnc(NC(=O)c2ccc(Cl)cc2)c2c1CCO2,inactive,
Cn1nc2n(c1=O)CCC(NS(=O)(=O)c1cccnc1)CC2 (configuration not stated),inactive,
CCCCNC(=O)CSc1nc2nc(C)c(Cc3ccccc3C)c(C)n2n1,"inconclusive: 11.2 µM [inhibitor, single point]",
